# Data from the supplement of paper PMC8728848.
# The list shows a part of the results.
# Key:
# Assay in all cases: glycan array binding signal (z-score within array); higher = stronger binding
# Details in all cases: glycan notation: IUPAC condensed, linker removed
# [1] = biological target: GlcNAc(b1-3)Gal(b1-4)GlcNAc(b1-2)Man(a1-3)[GlcNAc(b1-3)Gal(b1-4)GlcNAc(b1-2)Man(a1-6)]Man(b1-4)GlcNAc(b1-4)[Fuc(a1-6)]GlcNAc
# In short: (§1)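 Columns mapping to the same glycan were averaged after glycan names were converted to IUPAC-condensed notation. The data come from 3228 arrays in the Consortium for Functional Glycomics database, limited to those with an available protein sequence. Binding is reported as a within-array Z-score averaged across arrays of one protein sequence and across linkers.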
# [2] = biological target: GlcNAc(b1-3)Gal(b1-4)GlcNAc(b1-2)[GlcNAc(b1-3)Gal(b1-4)GlcNAc(b1-6)]Man(a1-6)[GlcNAc(b1-3)Gal(b1-4)GlcNAc(b1-2)Man(a1-3)]Man(b1-4)GlcNAc(b1-4)GlcNAc
# In short: as §1
# [3] = biological target: GlcNAc(b1-3)Gal(b1-4)GlcNAc(b1-3)Gal(b1-4)GlcNAc
# In short: as §1
# [4] = biological target: GlcNAc(b1-3)Gal(b1-4)GlcNAc(b1-3)Gal(b1-4)GlcNAc(b1-2)Man(a1-3)[GlcNAc(b1-3)Gal(b1-4)GlcNAc(b1-3)Gal(b1-4)GlcNAc(b1-2)Man(a1-6)]Man(b1-4)GlcNAc(b1-4)GlcNAc
# In short: as §1
# [5] = biological target: GlcNAc(b1-3)Gal(b1-4)GlcNAc(b1-3)Gal(b1-4)GlcNAc(b1-2)Man(a1-3)[GlcNAc(b1-3)Gal(b1-4)GlcNAc(b1-3)Gal(b1-4)GlcNAc(b1-2)Man(a1-6)]Man(b1-4)GlcNAc(b1-4)[Fuc(a1-6)]GlcNAc
# In short: as §1
# [6] = biological target: GlcNAc(b1-3)Gal(b1-4)GlcNAc(b1-3)Gal(b1-4)GlcNAc(b1-2)[GlcNAc(b1-3)Gal(b1-4)GlcNAc(b1-3)Gal(b1-4)GlcNAc(b1-6)]Man(a1-6)[GlcNAc(b1-3)Gal(b1-4)GlcNAc(b1-3)Gal(b1-4)GlcNAc(b1-2)Man(a1-3)]Man(b1-4)GlcNAc(b1-4)[Fuc(a1-6)]GlcNAc
# In short: as §1
# [7] = biological target: GlcNAc(b1-3)Gal(b1-4)GlcNAc(b1-3)Gal(b1-4)GlcNAc(b1-3)Gal(b1-4)GlcNAc(b1-2)Man(a1-3)[GlcNAc(b1-3)Gal(b1-4)GlcNAc(b1-3)Gal(b1-4)GlcNAc(b1-3)Gal(b1-4)GlcNAc(b1-2)Man(a1-6)]Man(b1-4)GlcNAc(b1-4)GlcNAc
# In short: as §1
# [8] = biological target: GlcNAc(b1-3)Gal(b1-4)GlcNAc(b1-3)Gal(b1-4)GlcNAc(b1-3)Gal(b1-4)GlcNAc(b1-2)Man(a1-3)[GlcNAc(b1-3)Gal(b1-4)GlcNAc(b1-3)Gal(b1-4)GlcNAc(b1-3)Gal(b1-4)GlcNAc(b1-2)Man(a1-6)]Man(b1-4)GlcNAc(b1-4)[Fuc(a1-6)]GlcNAc
# In short: as §1
# [9] = biological target: GlcNAc(b1-3)Gal(b1-4)GlcNAc(b1-3)Gal(b1-4)GlcNAc(b1-3)Gal(b1-4)GlcNAc(b1-2)[GlcNAc(b1-3)Gal(b1-4)GlcNAc(b1-3)Gal(b1-4)GlcNAc(b1-3)Gal(b1-4)GlcNAc(b1-6)]Man(a1-6)[GlcNAc(b1-3)Gal(b1-4)GlcNAc(b1-3)Gal(b1-4)GlcNAc(b1-3)Gal(b1-4)GlcNAc(b1-2)Man(a1-3)]Man(b1-4)GlcNAc(b1-4)[Fuc(a1-6)]GlcNAc
# In short: as §1
# [10] = biological target: GlcNAc(b1-3)Gal(b1-4)GlcNAc(b1-3)Gal(b1-4)GlcNAc(b1-3)Gal(b1-4)GlcNAc(b1-3)Gal(b1-4)GlcNAc(b1-2)Man(a1-3)[GlcNAc(b1-3)Gal(b1-4)GlcNAc(b1-3)Gal(b1-4)GlcNAc(b1-3)Gal(b1-4)GlcNAc(b1-3)Gal(b1-4)GlcNAc(b1-2)Man(a1-6)]Man(b1-4)GlcNAc(b1-4)GlcNAc
# In short: as §1
# [11] = biological target: GlcNAc(b1-3)Gal(b1-4)GlcNAc(b1-3)Gal(b1-4)GlcNAc(b1-3)Gal(b1-4)GlcNAc(b1-3)Gal(b1-4)GlcNAc(b1-2)Man(a1-3)[GlcNAc(b1-3)Gal(b1-4)GlcNAc(b1-3)Gal(b1-4)GlcNAc(b1-3)Gal(b1-4)GlcNAc(b1-3)Gal(b1-4)GlcNAc(b1-2)Man(a1-6)]Man(b1-4)GlcNAc(b1-4)[Fuc(a1-6)]GlcNAc
# In short: as §1
# [12] = biological target: GlcNAc(b1-3)Gal(b1-4)GlcNAc(b1-3)Gal(b1-4)GlcNAc(b1-3)Gal(b1-4)GlcNAc(b1-3)Gal(b1-4)GlcNAc(b1-2)[GlcNAc(b1-3)Gal(b1-4)GlcNAc(b1-3)Gal(b1-4)GlcNAc(b1-3)Gal(b1-4)GlcNAc(b1-3)Gal(b1-4)GlcNAc(b1-6)]Man(a1-6)[GlcNAc(b1-3)Gal(b1-4)GlcNAc(b1-3)Gal(b1-4)GlcNAc(b1-3)Gal(b1-4)GlcNAc(b1-3)Gal(b1-4)GlcNAc(b1-2)Man(a1-3)]Man(b1-4)GlcNAc(b1-4)[Fuc(a1-6)]GlcNAc
# In short: as §1
# [13] = biological target: GlcNAc(b1-3)Gal(b1-4)GlcNAc(b1-3)Gal(b1-4)GlcNAc(b1-3)GalNAc
# In short: as §1
# [14] = biological target: GlcNAc(b1-3)Gal(b1-4)GlcNAc(b1-3)GalNAc
# In short: as §1
# [15] = biological target: GlcNAc(b1-3)Gal(b1-4)GlcNAc(b1-3)[GlcNAc(b1-3)Gal(b1-4)GlcNAc(b1-3)]GalNAc
# In short: as §1
# [16] = biological target: GlcNAc(b1-3)Gal(b1-4)GlcNAc(b1-6)[Gal(b1-3)]GalNAc
# In short: as §1
# [17] = biological target: GlcNAc(b1-3)Gal(b1-4)GlcNAc(b1-6)[GlcNAc(b1-3)Gal(b1-3)]GalNAc
# In short: as §1
# [18] = biological target: GlcNAc(b1-3)Gal(b1-4)GlcNAc(b1-6)[GlcNAc(b1-3)]Gal(b1-4)GlcNAc
# In short: as §1
# GlcNAc(b1-3)GalNAc = biological target: GlcNAc(b1-3)GalNAc
# In short: as §1
# GlcNAc(b1-3)Man = biological target: GlcNAc(b1-3)Man
# In short: as §1
# [19] = biological target: GlcNAc(b1-3)[GlcNAc(b1-4)][GlcNAc(b1-6)]GlcNAc
# In short: as §1
# [20] = biological target: GlcNAc(b1-3)[GlcNAc(b1-6)]Gal(b1-4)GlcNAc
# In short: as §1
# [21] = biological target: GlcNAc(b1-3)[GlcNAc(b1-6)]GalNAc
# In short: as §1
# [22] = biological target: GlcNAc(b1-3)[GlcNAc(b1-6)]GlcNAc
# In short: as §1
# [23] = biological target: GlcNAc(b1-4)Gal(b1-4)GlcNAc
# In short: as §1
# GlcNAc(b1-4)GlcNAc = biological target: GlcNAc(b1-4)GlcNAc
# In short: as §1
# [24] = biological target: GlcNAc(b1-4)GlcNAc(b1-4)GlcNAc
# In short: as §1
# [25] = biological target: GlcNAc(b1-4)GlcNAc(b1-4)GlcNAc(b1-4)GlcNAc(b1-4)GlcNAc
# In short: as §1
# [26] = biological target: GlcNAc(b1-4)GlcNAc(b1-4)GlcNAc(b1-4)GlcNAc(b1-4)GlcNAc(b1-4)GlcNAc
# In short: as §1
# [27] = biological target: GlcNAc(b1-4)[GlcNAc(b1-6)]GalNAc
# In short: as §1
# [28] = biological target: GlcNAc(b1-6)Gal(b1-4)GlcNAc
# In short: as §1
# GlcNAc(b1-6)GalNAc = biological target: GlcNAc(b1-6)GalNAc
# In short: as §1
# [29] = biological target: GlcNAc6S(b1-3)Gal(b1-4)GlcNAc
# In short: as §1
# Kdn(a2-3)Gal(b1-3)GalNAc = biological target: Kdn(a2-3)Gal(b1-3)GalNAc
# In short: as §1
# Kdn(a2-3)Gal(b1-3)GlcNAc = biological target: Kdn(a2-3)Gal(b1-3)GlcNAc
# In short: as §1
# Kdn(a2-3)Gal(b1-4)Glc = biological target: Kdn(a2-3)Gal(b1-4)Glc
# In short: as §1
# Kdn(a2-3)Gal(b1-4)GlcNAc = biological target: Kdn(a2-3)Gal(b1-4)GlcNAc
# In short: as §1
binder,measurement,setting,value
"Epa7 (Candida glabrata), Q6DTM6_CANGB (protein) MGSSHHHHHHSSGLVPRGSHMKDDYSSFLSNNNLGWTDPTEFPLGCSPNVTTPKNGLSMELYSYDLRKNGSYPCWDAAYLDPNYPRTGYKSHRLLAKVDGVTGNINFYYHATKGCTPEIDHLPASYNYPKPLTMTNFTMLLYGYFKPKVTGYHTFTISADDLLFVNFGAGNAFDCCKRESSADDFGNYQAYAVWGSQTAKDDLTVHLDAGLYYPIRIFFNNREYDAELSLTLKTESDSNPVIDFSDYFYSFDDTKDGCPGLVSYDTS",glycan array binding signal (z-score),[1],-0.207
same,glycan array binding signal (z-score),[2],-0.114
same,glycan array binding signal (z-score),[3],-0.259
same,glycan array binding signal (z-score),[4],-0.208
same,glycan array binding signal (z-score),[5],-0.233
same,glycan array binding signal (z-score),[6],-0.224
same,glycan array binding signal (z-score),[7],-0.235
same,glycan array binding signal (z-score),[8],-0.226
same,glycan array binding signal (z-score),[9],-0.229
same,glycan array binding signal (z-score),[10],-0.233
same,glycan array binding signal (z-score),[11],-0.21
same,glycan array binding signal (z-score),[12],-0.234
same,glycan array binding signal (z-score),[13],-0.221
same,glycan array binding signal (z-score),[14],-0.24
same,glycan array binding signal (z-score),[15],-0.225
same,glycan array binding signal (z-score),[16],2.11
same,glycan array binding signal (z-score),[17],-0.195
same,glycan array binding signal (z-score),[18],-0.242
same,glycan array binding signal (z-score),GlcNAc(b1-3)GalNAc,-0.247
same,glycan array binding signal (z-score),GlcNAc(b1-3)Man,-0.232
same,glycan array binding signal (z-score),[19],-0.261
same,glycan array binding signal (z-score),[20],-0.26
same,glycan array binding signal (z-score),[21],-0.231
same,glycan array binding signal (z-score),[22],-0.28
same,glycan array binding signal (z-score),[23],-0.261
same,glycan array binding signal (z-score),GlcNAc(b1-4)GlcNAc,-0.23
same,glycan array binding signal (z-score),[24],-0.258
same,glycan array binding signal (z-score),[25],-0.252
same,glycan array binding signal (z-score),[26],-0.254
same,glycan array binding signal (z-score),[27],-0.258
same,glycan array binding signal (z-score),[28],-0.139
same,glycan array binding signal (z-score),GlcNAc(b1-6)GalNAc,-0.248
same,glycan array binding signal (z-score),[29],0.109
same,glycan array binding signal (z-score),Kdn(a2-3)Gal(b1-3)GalNAc,-0.192
same,glycan array binding signal (z-score),Kdn(a2-3)Gal(b1-3)GlcNAc,-0.238
same,glycan array binding signal (z-score),Kdn(a2-3)Gal(b1-4)Glc,-0.136
same,glycan array binding signal (z-score),Kdn(a2-3)Gal(b1-4)GlcNAc,-0.226
